Test results: the supplement of paper PMC10369915
This is one part of the list. No stated cut-off is given here; in the data, active = 3.2 or more and inactive = the rest. The signal is at background level for most entries.

Columns and labels:
Experiment in all cases: enrichment score (SH2-bound / input frequency) (ratio); bacterial display of known human phosphotyrosine sites (pTyr-Var adds point mutants) read by sequencing; higher = stronger binding; tyrosines were phosphorylated by kinases first
Settings in all cases: peptide library: pTyr-Var
[1] = biological target: SHP2 C-SH2 domain E139D
[2] = biological target: SHP2 C-SH2 domain wild-type
[3] = biological target: SHP2 N-SH2 domain L43F
[4] = biological target: SHP2 N-SH2 domain T42A
[5] = biological target: SHP2 N-SH2 domain T52S
[6] = biological target: SHP2 N-SH2 domain wild-type

Measured: enrichment score
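Further: displayed peptides selected on beads carrying the immobilized SH2 domain, with library peptides lacking any tyrosine serving as negative controls.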

B1: MAVS_Y92_Q93E_YF (peptide)
chain: EVASVYESFQP
inactive: [1] 0.859 | [2] 0.743 | [3] 0.853 | [4] 0.845 | [5] 0.759 | [6] 1.11

B2: MAPRE2_Y162_YF (peptide)
chain: FFDANYDGKEF
inactive: [1] 0.886 | [2] 0.863 | [3] 0.876 | [4] 0.579 | [5] 0.841 | [6] 0.734

B3: MC4R_Y41 (peptide)
chain: SDGGCYEQLFV
inactive: [1] 0.88 | [2] 0.809 | [3] 0.79 | [4] 0.704 | [5] 0.718 | [6] 0.967

B4: MAX_Y73_I71S_YF (peptide)
chain: TEFSQYMRRKN
inactive: [1] 0.167 | [2] 0.222 | [3] 0.258 | [4] 0.259 | [5] 0.262 | [6] 0.296

B5: MAPT_Y18_T17M (peptide)
chain: DHAGMYGLGDR
inactive: [1] 0.769 | [2] 0.628 | [3] 0.5 | [4] 0.603 | [5] 0.635 | [6] 0.687

B6: MAPRE2_Y158_YF (peptide)
chain: WFKKFYDANFD
inactive: [1] 0.8 | [2] 0.714 | [3] 0.705 | [4] 0.643 | [5] 0.655 | [6] 0.896

B7: MAPRE2_Y162_Y162C (peptide)
chain: FYDANCDGKEY
inactive: [1] 0.874 | [2] 0.762 | [3] 0.818 | [4] 0.492 | [5] 0.712 | [6] 0.879

B8: MASP2_Y401 (peptide)
chain: CEETFYTMKVN
inactive: [1] 0.993 | [2] 0.944 | [3] 1.18 | [4] 0.919 | [5] 0.962 | [6] 1.42

B9: MAVS_Y92 (peptide)
chain: EVASVYQSYQP
inactive: [1] 0.811 | [2] 0.673 | [3] 0.705 | [4] 0.443 | [5] 0.768 | [6] 0.744

B10: MAX_Y70_M74V (peptide)
chain: DKATEYIQYVR
inactive: [1] 0.653 | [2] 0.921 | [3] 0.787 | [4] 0.787 | [5] 0.812 | [6] 0.799

B11: MAPRE2_Y167_Y162C (peptide)
chain: CDGKEYDPVEA
inactive: [1] 0.6 | [2] 0.671 | [3] 0.649 | [4] 0.534 | [5] 0.746 | [6] 0.793

B12: MAPK14_Y323_P322R (peptide)
chain: PVADRYDQSFE
inactive: [1] 0.484 | [2] 0.542 | [3] 0.454 | [4] 0.487 | [5] 0.533 | [6] 0.668

B13: MATR3_Y158_P154S (peptide)
chain: GSTLSYGRDGR
inactive: [1] 0.598 | [2] 0.606 | [3] 0.605 | [4] 0.596 | [5] 0.572 | [6] 1.08

B14: MATR3_Y784 (peptide)
chain: YRIGPYQPNVP
inactive: [1] 1.04 | [2] 1.01 | [3] 1.01 | [4] 0.914 | [5] 0.847 | [6] 1.07

B15: MATR3_Y784_N787S_YF (peptide)
chain: FRIGPYQPSVP
inactive: [1] 1.58 | [2] 1.19 | [3] 1.63 | [4] 1.68 | [5] 1.76 | [6] 1.41

B16: MAPT_Y711_G706R (peptide)
chain: RAEIVYKSPVV
inactive: [1] 0.752 | [2] 0.747 | [3] 0.675 | [4] 0.95 | [5] 0.827 | [6] 2.46

B17: MAPRE2_Y158_Y162C (peptide)
chain: WFKKFYDANCD
inactive: [1] 0.643 | [2] 0.599 | [3] 0.531 | [4] 0.602 | [5] 0.62 | [6] 0.849

B18: MAPRE2_Y167_YF (peptide)
chain: FDGKEYDPVEA
inactive: [1] 1.06 | [2] 0.646 | [3] 0.861 | [4] 0.647 | [5] 1.24 | [6] 0.737

B19: MAPT_Y711 (peptide)
chain: GAEIVYKSPVV
inactive: [1] 0.741 | [2] 0.656 | [3] 0.672 | [4] 0.725 | [5] 0.794 | [6] 0.524
